# Reference: the supplement of paper PMC9135407
# “And” between values parts separate entries of the source, which are not always exact repeats. Equal entries are not always repeated. Structures can show the parent of a compound that is named as a salt. Hit rate of the full screen: of about 5,800 compounds, about 620 (11%) showed activity.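 The calls were made as follows: active = score above a cut-off or among the top three wells of a plate; in these data no inactive exceeds 0.85.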 The list shows a part of the results, in another mix than the full data.
# Test system: primary human hepatic stellate cells (donor 1)
# Test: scaled lipid accumulation score (0 = DMSO-like, 1 = nortriptyline-like); higher = stronger HSC inactivation (lipid re-accumulation), active = hit call of the paper
# Details: 48 h
# [1] = library stock concentration: 10 mM
# [2] = library stock concentration: 3.33 mM
# [3] = library stock concentration: 1 mM
# [4] = library stock concentration: 400 uM
# [5] = library stock concentration: 2 mM
compound,measurement,setting,value
CC[C@@H](C)Nc1cc(C(=O)NC2CC3CCC(C2)N3c2ccc(C(=O)C3CC3)cn2)c(C)cc1C(N)=O (some centres not stated),scaled lipid accumulation score,[1],active: 0.853
Cc1ccc(Sc2ccccc2N2CCNCC2)c(C)c1,scaled lipid accumulation score,[2],inactive: 0.769
same,scaled lipid accumulation score,[1],inactive: 0.102
Cc1cc2c(OCC(CNC(C)(C)C)OC(=O)c3ccccc3)cccc2[nH]1 (configuration not stated) [Bopindolol malonate],scaled lipid accumulation score,library stock concentration: 5.3 mM,inactive: ≤ -0.006
O=C(O)c1cc([N+](=O)[O-])ccc1NCCCc1ccccc1 [5-Nitro-2-(3-phenylpropylamino)benzoic acid],scaled lipid accumulation score,[1],inactive: 0.074
CCCCCCCCNC(C)C(O)c1ccc(SC(C)C)cc1 (configuration not stated) [Suloctidil],scaled lipid accumulation score,,inactive: 0.747
same,scaled lipid accumulation score,library stock concentration: 5.9 mM,inactive: 0.37
same,scaled lipid accumulation score,[1],inactive: ≤ 0
CC(=O)CC(c1ccc([N+](=O)[O-])cc1)c1c(O)c2ccccc2oc1=O (configuration not stated) [Acenocoumarol],scaled lipid accumulation score,,inactive: ≤ 0
C[C@H]1O[C@@H](O[C@H]2[C@@H](O)C[C@H](O[C@H]3[C@@H](O)C[C@H](O[C@H]4CC[C@@]5(C)[C@H](CC[C@@H]6[C@@H]5CC[C@]5(C)[C@@H](C7=CC(=O)OC7)CC[C@]65O)C4)O[C@@H]3C)O[C@@H]2C)C[C@H](O)[C@@H]1O [Digitoxin],scaled lipid accumulation score,[1],inactive: 0.545
S=c1[nH]cnc2nc[nH]c12 [Mercaptopurine (6-MP)],scaled lipid accumulation score,[2],inactive: ≤ 0
same,scaled lipid accumulation score,[1],inactive: ≤ 0
S=c1[nH]cnc2nc[nH]c12 [Mercaptopurine],scaled lipid accumulation score,[1],inactive: ≤ 0
same,scaled lipid accumulation score,library stock concentration: 13.1 mM,inactive: ≤ -0.001
NS(=O)(=O)c1ccc(NC(=O)Nc2ccc(F)cc2)cc1,scaled lipid accumulation score,[2],inactive: 0.042
same,scaled lipid accumulation score,[1],inactive: 0.029
O=C(O)CCC/C=C\C[C@H]1[C@@H](/C=C/[C@@H](O)CCc2ccccc2)[C@H](O)C[C@@H]1O [8-iso-17-phenyl trinor Prostaglandin F2.alpha.],scaled lipid accumulation score,[3],inactive: ≤ 0
Cc1cccc(-c2[nH]ncc2-c2ccc3ncccc3n2)n1,scaled lipid accumulation score,[2],inactive: ≤ -0.004
same,scaled lipid accumulation score,[1],inactive: 0.004 and inactive: 0.433
Cn1cc(C2=C(c3ccc(Cl)cc3Cl)C(=O)NC2=O)c2ccccc21,scaled lipid accumulation score,[1],active: 1.22
CN(Cc1ccc(C(C)(C)C)cc1)Cc1cccc2ccccc12 [Butenafine HCl],scaled lipid accumulation score,[2],inactive: ≤ 0
same,scaled lipid accumulation score,[1],inactive: 0.062
CN(Cc1ccc(C(C)(C)C)cc1)Cc1cccc2ccccc12 [Butenafine],scaled lipid accumulation score,library stock concentration: 6.3 mM,inactive: ≤ -0.006
CN(C)CCOc1cc(-c2cn[nH]c2)ccc1NC(=O)C1COc2ccccc2O1 (configuration not stated),scaled lipid accumulation score,[4],inactive: ≤ -0.005
same,scaled lipid accumulation score,[5],inactive: 0.383
NCCCCN [Putrescine dihydrochloride],scaled lipid accumulation score,[1],inactive: ≤ 0
N=C(CC(O)COc1ccccc1-c1ccccc1)N1CCCCC1 (configuration not stated),scaled lipid accumulation score,[1],inactive: 0.781
CCCCc1nc2ccn(Cc3cccs3)c(=O)c2n1Cc1ccc(-c2ccccc2-c2nn[nH]n2)cc1,scaled lipid accumulation score,[1],inactive: ≤ -0.006
O=C1OC(=O)[C@H]2[C@@H]1[C@@H]1CC[C@H]2O1 [Norcantharidin],scaled lipid accumulation score,[1],inactive: 0.439
CN(C)CC[C@@H](c1ccc(Br)cc1)c1ccccn1,scaled lipid accumulation score,[1],inactive: ≤ 0
O=P(O)(O)OC1[C@@H](O)[C@H](O)C(O)[C@H](O)[C@@H]1O (stereo partly drawn) [D-myo-Inositol-3-phosphate (sodium salt)],scaled lipid accumulation score,[3],inactive: 0.009
CC(C)NC(=N)NC(=N)Nc1ccc(Cl)cc1 [Chloroguanide hydrochloride],scaled lipid accumulation score,library stock concentration: 6.9 mM,inactive: ≤ 0
CC(C)NC(=N)NC(=N)Nc1ccc(Cl)cc1 [Proguanil hydrochloride],scaled lipid accumulation score,,inactive: 0.232
Cc1nc2c(O)cccc2c(=O)[nH]1,scaled lipid accumulation score,[1],inactive: ≤ -0.006
O=C(NNc1ccccc1)c1ccncc1,scaled lipid accumulation score,[2],inactive: ≤ -0.009
same,scaled lipid accumulation score,[1],inactive: ≤ 0
COc1ccc2c3c1O[C@H]1C[C@@H](O)C=C[C@@]31CCN(C)C2 [Galanthamine HBr],scaled lipid accumulation score,library stock concentration: 7 mM,inactive: ≤ -0.006
COc1ccc2c3c1O[C@H]1C[C@@H](O)C=C[C@@]31CCN(C)C2 [Galanthamine],scaled lipid accumulation score,[1],inactive: ≤ 0
COc1ccc2c3c1O[C@H]1C[C@@H](O)C=C[C@@]31CCN(C)C2 [Galanthamine hydrobromide],scaled lipid accumulation score,,inactive: 0.047
same,scaled lipid accumulation score,library stock concentration: 5.4 mM,inactive: ≤ 0
same,scaled lipid accumulation score,[1],inactive: ≤ 0
Cc1cc(F)c(Nc2ncnc3cc(OCc4ccccc4)ccc23)cc1O,scaled lipid accumulation score,[2],inactive: ≤ 0
same,scaled lipid accumulation score,[1],inactive: 0.288 and inactive: 0.141
CCCC(=O)O[C@]1(C(=O)CO)CC[C@H]2[C@@H]3CCC4=CC(=O)CC[C@]4(C)[C@H]3[C@@H](O)C[C@@]21C [Hydrocortisone butyrate],scaled lipid accumulation score,[1],inactive: 0.236
CC1(C)S[C@@H]2[C@H](NC(=O)COc3ccccc3)C(=O)N2[C@H]1C(=O)O [Penicillin V],scaled lipid accumulation score,[1],inactive: ≤ 0
CC1(C)S[C@@H]2[C@H](NC(=O)COc3ccccc3)C(=O)N2[C@H]1C(=O)O [Penicillin v potassium],scaled lipid accumulation score,library stock concentration: 5.1 mM,inactive: 0.003
same,scaled lipid accumulation score,[1],inactive: ≤ 0
Cc1nnc(SCC2=C(C(=O)O)N3C(=O)[C@@H](NC(=O)Cn4cnnn4)[C@H]3SC2)s1 [Cefazolin?Sodium],scaled lipid accumulation score,[1],inactive: ≤ 0
Cc1nnc(SCC2=C(C(=O)O)N3C(=O)[C@@H](NC(=O)Cn4cnnn4)[C@H]3SC2)s1 [Cefazolin sodium],scaled lipid accumulation score,[1],inactive: ≤ 0
Cc1nnc(SCC2=C(C(=O)O)N3C(=O)[C@@H](NC(=O)Cn4cnnn4)[C@H]3SC2)s1 [Cefazolin sodium salt],scaled lipid accumulation score,,inactive: ≤ 0
Cn1cncc1[C@@](N)(c1ccc(Cl)cc1)c1ccc2c(c1)c(-c1cccc(Cl)c1)cc(=O)n2C [Tipifarnib],scaled lipid accumulation score,[2],inactive: ≤ 0
same,scaled lipid accumulation score,[1],inactive: 0.104
C=CC(=O)Nc1cc(-n2c(=O)ccc3cnc4ccc(-c5cn[nH]c5)cc4c32)ccc1C,scaled lipid accumulation score,library stock concentration: 80 uM,inactive: ≤ 0
same,scaled lipid accumulation score,[4],inactive: ≤ 0
same,scaled lipid accumulation score,[5],inactive: 0.082
same,scaled lipid accumulation score,[1],inactive: 0.662
Cc1cc(C#N)cc(C)c1Oc1nc(Nc2ccc(C#N)cc2)nc(N)c1Br [Etravirine (TMC125)],scaled lipid accumulation score,[2],inactive: ≤ 0
same,scaled lipid accumulation score,[1],inactive: 0.454
O=c1[nH]c(=O)n([C@H]2C[C@H](O)[C@@H](CO)O2)cc1C(F)(F)F [Trifluridine],scaled lipid accumulation score,,inactive: ≤ 0
same,scaled lipid accumulation score,[2],inactive: ≤ 0
same,scaled lipid accumulation score,library stock concentration: 6.8 mM,inactive: 0.173
same,scaled lipid accumulation score,[1],inactive: ≤ 0 and inactive: ≤ -0.027
